{
  "source": "PubChem BioAssay AID1346428",
  "about": "(National Center for Advancing Translational Sciences (NCATS), 2018)",
  "note": "The whole screen tested about 48,000 compounds, of which about 1,200 (2.5%) were called active. Not shown: some 2% with an inconclusive outcome.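 The calls were made as follows: active = activation of at least 60% and not above a set upper limit (about 1 call in 100 departs from these limits); inconclusive = activation of 40% to 60%, or above that upper limit; inactive = activation under 40%.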 This is one part of the list.",
  "data": [
    {"biological_target": "Probable G-protein coupled receptor 32 (Homo sapiens) (UniProt O75388)", "sequence (O75388 whole entry, looked up)": "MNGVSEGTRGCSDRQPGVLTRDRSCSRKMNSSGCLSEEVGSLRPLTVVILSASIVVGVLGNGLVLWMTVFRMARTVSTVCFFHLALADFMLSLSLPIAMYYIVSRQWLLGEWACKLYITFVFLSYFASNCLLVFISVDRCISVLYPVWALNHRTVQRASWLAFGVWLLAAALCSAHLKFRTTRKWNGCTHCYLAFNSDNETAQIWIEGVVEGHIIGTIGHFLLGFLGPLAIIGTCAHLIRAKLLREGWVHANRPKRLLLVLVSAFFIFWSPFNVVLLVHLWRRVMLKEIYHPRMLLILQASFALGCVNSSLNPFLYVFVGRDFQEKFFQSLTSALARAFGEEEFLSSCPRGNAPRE", "assay": "qHTS for Agonists of Human Resolvin D1 Receptor DRV1; also: 0% is about no effect", "conditions": "CHO-K1 GPR32 beta-arrestin PathHunter luminescence, 90 min; at 76.9 µM; hits give high values; zero percent set by DMSO-only wells", "in_short": "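CHO-K1 cells stably expressing ProLink-tagged GPR32 and Enzyme Activator-tagged beta-arrestin were seeded at 2,500 cells/well overnight, exposed to compounds for 90 min at 37 °C, then read by beta-Gal complementation chemiluminescence after 1 h detection reagent.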", "values": [
      {"smiles": "CC(=O)Nc1ccc2nc(SCCOc3ccccc3)sc2c1", "activation": "active: 118%"},
      {"smiles": "CCc1ccc(CN(Cc2ccco2)C(=O)COc2ccc(Cl)cc2C)cc1", "activation": "inactive: -23.6%"},
      {"smiles": "Cc1c(CNC2CCCCCC2)c(C(=O)O)c(C)n1Cc1ccc(F)cc1", "activation": "inactive: -0.777%"},
      {"smiles": "COc1ccccc1N1CCN(C(=O)Cn2c(=O)n3nc(-c4cccc(C)c4)nc3c3ccccc32)CC1", "activation": "inactive: -0.38%"},
      {"smiles": "COc1ccc(CCNC(=O)c2c(C)nn(-c3ccc(F)cc3)c2-n2cccc2)c(OC)c1OC", "activation": "inactive: 11.6%"},
      {"smiles": "Cc1ccc(Nc2sc(C(=O)c3ccccc3)c(N)c2S(=O)(=O)c2ccccc2)c(C)c1", "activation": "inactive: -14.4%"},
      {"smiles": "COc1ccc(-n2ncc(C(=O)Nc3ccc4c(c3)OCCO4)c2C2CCN(C(=O)OC(C)(C)C)CC2)cc1", "activation": "inactive: 3.29%"},
      {"smiles": "CCOc1ccc(CNC(=O)C2CCCN(S(=O)(=O)N(CC)c3ccc(OCC)cc3)C2)cc1", "note": "(stereo unspecified)", "activation": "inactive: -18.3%"},
      {"smiles": "CCCSc1ncc(Cl)c(C(=O)Nc2c(C(=O)c3ccc(F)cc3)oc3ccccc23)n1", "activation": "inactive: -3.39%"},
      {"smiles": "O=C(NCCc1ccccc1)c1ccc2c(c1)CCN2S(=O)(=O)c1ccccc1", "activation": "inactive: -10.6%"},
      {"smiles": "Cc1ccc(S(=O)(=O)N2CCC(C(=O)Nc3ccc(Oc4ccccc4)cc3)CC2)cc1", "activation": "inactive: 10.7%"},
      {"smiles": "CCN(C(=O)Cn1nc(Cc2ccncc2)c2ccccc2c1=O)c1cccc(C(F)(F)F)c1", "activation": "inactive: -23.4%"},
      {"smiles": "CC(C)Cn1c(=O)c2ccccc2n2c(CCC(=O)Nc3ccc(F)c(F)c3)nnc12", "activation": "inactive: 1.53%"},
      {"smiles": "CCOC(=O)c1c(NC(=O)C(C)Oc2ccc(Cl)c(C)c2)sc2c1CCCC2", "note": "(stereo unspecified)", "activation": "inactive: -16.2%"},
      {"smiles": "Cc1nn2c(=O)cc(COC(=O)c3ccc(NC(=O)c4cccs4)cc3)nc2s1", "activation": "inactive: 7.62%"},
      {"smiles": "O=C(Cn1cc(S(=O)(=O)Cc2ccccc2F)c2ccccc21)NCc1ccccc1Cl", "activation": "inactive: -7.41%"},
      {"smiles": "Cc1cc(C)cc(NC(=O)CN2C(=O)CCc3cc(S(=O)(=O)N4CCCCC4)ccc32)c1", "activation": "inactive: -28.4%"},
      {"smiles": "CC(C)CSc1ccccc1NC(=O)c1sc2nc(-c3ccncc3)ccc2c1N", "activation": "inactive: -10.9%"},
      {"smiles": "CCN(c1cc(C)cc(C)c1)S(=O)(=O)c1nnc(NC(=O)c2ccco2)s1", "activation": "inactive: 9.44%"},
      {"smiles": "COc1ccc(NC(=O)CCN2CCN(CCO)CC2)cc1", "activation": "inactive: -1.94%"},
      {"smiles": "COc1ccc2[nH]cc(CCNC(=O)c3cnn(-c4ccccc4Cl)c3C3CCN(C(=O)OC(C)(C)C)CC3)c2c1", "activation": "inactive: -23.4%"},
      {"smiles": "Cc1nc2c(C(=O)NCCc3ccccc3)c[nH]n2c(=O)c1Cc1ccc(F)cc1Cl", "activation": "inactive: 39.9%"},
      {"smiles": "Cc1ccc(NC(=O)Cn2nnc(-c3nc(-c4ccc(Cl)cc4)no3)c2N)cc1C", "activation": "inactive: 13.2%"},
      {"smiles": "Cc1cccc(N2CCN(C(=O)c3ccc(NC(=O)c4nsc5ccccc45)cc3)CC2)c1C", "activation": "inactive: -12.7%"},
      {"smiles": "CCOc1ccc(C(=O)Nc2ccc(-c3nc4ccccc4s3)c(C)c2)cc1OCC", "activation": "inactive: 3.63%"},
      {"smiles": "O=C(O)CCCCC(=O)O", "activation": "inactive: 16.4%"},
      {"smiles": "O=C1c2[nH]nc(-c3ccccc3O)c2C(c2ccc(Cl)cc2)N1CCc1ccccc1", "note": "(stereo unspecified)", "activation": "inactive: 49.4%"},
      {"smiles": "CCOCN(C(=O)Cn1c(CC(C)C)nc2ccccc21)c1c(C)cccc1CC", "activation": "inactive: 33.7%"},
      {"smiles": "CCOc1ccccc1Nc1ncnc2c1c(-c1ccccc1)cn2-c1ccc(OC)cc1", "activation": "inactive: -40.2%"},
      {"smiles": "CC(C)c1ccc(NC(=O)C(NS(=O)(=O)c2ccc3c(c2)CCC(=O)N3)c2ccccc2)cc1", "note": "(stereo unspecified)", "activation": "inactive: 0.708%"},
      {"smiles": "Cn1c(=O)cc(OCC(=O)N2CCN(c3ccc(F)cc3)CC2)c2ccccc21", "activation": "inactive: -24%"},
      {"smiles": "COc1cc(OC)cc(-c2cc3nc(C)c(CCC(=O)Nc4ccc(F)c(Cl)c4)c(C)n3n2)c1", "activation": "inactive: -11.8%"},
      {"smiles": "Cc1c(Cl)cccc1NC(=O)C(C)N(c1ccccc1)S(C)(=O)=O", "note": "(stereo unspecified)", "activation": "inactive: 4.29%"},
      {"smiles": "CCc1ccc(NC(=O)N(Cc2cn(CC)c3ccccc23)C2CCCCC2)cc1", "activation": "inactive: -4.03%"},
      {"smiles": "Cc1cc(C)cc(NC(=O)c2ncn(-c3ccccc3)n2)c1", "activation": "inactive: 42.4%"},
      {"smiles": "CCc1ccc(NC(=O)COCc2cc(-c3ccc(F)cc3)on2)cc1", "activation": "inactive: -4.54%"},
      {"smiles": "O=C(CSCc1cnn(-c2ccccc2)c1-n1cccc1)NCc1ccccc1Br", "activation": "inactive: -19.6%"},
      {"smiles": "O=S(=O)(c1ccccc1)c1nc(-c2ccccc2)oc1N1CCN(c2cccc(Cl)c2)CC1", "activation": "inactive: -19.9%"},
      {"smiles": "Cc1ccc(-c2cn3cccnc3n2)cc1NC(=O)Cc1ccccc1", "activation": "inactive: -10.9%"},
      {"smiles": "CC(=O)N1c2ccc(S(=O)(=O)NCC3CCC(C(=O)Nc4ccc(F)cc4)CC3)cc2CC1C", "note": "(stereo unspecified)", "activation": "active: 68%"},
      {"smiles": "CCOC(=O)c1c(C)[nH]c(C)c1S(=O)(=O)N1CCN(c2ccc(Cl)cc2)CC1", "activation": "active: 68%"}
    ]}
  ]
}
